Reference: the RNAGym collection of RNA variant scans (doi:10.1073/pnas.2313332121)
Variants at the background level are over-represented here.

B1: TPR 5TU (parent)
chain: GGAUCUUCUCGAUCUAACAAAAAAGACAAAUCUGCCACAAAGCUUGAGAGCAUCUUCGGAUGCAGAGGCGGCAGCCUUCGGUGGCGCGAUAGCGCCAACGUUCUCAACUAUGACACGCAAAACGCGUGCUCCGUUGAAUGGAGUUUAUCAUG

Variants of: B1
Assay: polymerase ribozyme fitness, log enrichment relative to wild type (log ratio); higher = more active; in vitro selection for triplet polymerase activity
Procedure, shortened: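 Fitness compares each genotype's enrichment to that of the wild type on a logarithmic scale, averaging replicates with inverse-variance weights. The logarithm is base 2. Enrichment came from Illumina sequencing of input and output libraries after one triplicate round of in vitro selection, which included frozen incubation at −7 °C, of PCR-built, transcribed mutant libraries of each subunit of a heterodimeric triplet polymerase ribozyme. Only genotypes with ≥10 input reads and ≥1 read per output were kept.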

Variant	polymerase ribozyme fitness (log ratio)
C51A C85U C103G G124A U145G A150G	≤ -4.2
G50U A66U C69G U135C	≤ -4.2
G50A G86A G128A C132U	≤ -4.2
G50U C95A U102G U111A	≤ -4.2
G50C G83A	-3.65
G50C G83U	-3.77
G50C G70C	≤ -4.2
G50A C116A	-0.537
G50A G70C G81U C99A U134A	≤ -4.2
G50C C75U C93G A115G	≤ -4.2
G50U C57A C72U G84A	-0.724
G50C U82A G83C	≤ -4.2
C51A A52G U56G C79A	≤ -4.2
G50C C96G U144C	≤ -4.2
C51G A52U A66U U145A	≤ -4.2
C51A A52C U146G	-2.06
C51A C54G G83C G124C	≤ -4.2
C51A C87A	≤ -4.2
G50U A52G C85A U109A G143U	≤ -4.2
G50C G65C G67C	≤ -4.2
C51A C69A A73G C93U C99A	≤ -4.2
G50C U56C C87G A89C G100C A120G C125U	≤ -4.2
G50A C54U C57A G84U C103G G124C G133U G141C	≤ -4.2
G50A C57U C76U C125U A142C U144G A150G	-3.98

Variant	polymerase ribozyme fitness (log ratio)
G50A C75A G83U C95U G126U	≤ -4.2
G50C U55A C96G A107C	≤ -4.2
G50A C54G U77G A97U A120G	≤ -4.2
G50C G68A A91U C96G G100A G124C G141C	≤ -4.2
G50U C95U C96U A115G	≤ -4.2
G50C U77G A106U	≤ -4.2
G50U C85A U144A U145C	-1.01
G50C A52G U55A U56G C57U G86A C96A U101A	≤ -4.2
G50U A66C G71A G84U G136C U146G	≤ -4.2
G50U G70A G136U	≤ -4.2
G50U G70A C93G C116A G140A	≤ -4.2
G50A G58A C87G C103A A119C	≤ -4.2
G50A C96G	-1.55
G50U A89U C93U C99U U145A	-3.4
C51A C87A C99G A115G G136C A147C	≤ -4.2
C51A U55A A64G G83U G92A	≤ -4.2
G50A G68A C96G C99U G136A	≤ -4.2
G50C G71A C95U G117C G143A	≤ -4.2
G50C C76A C87A	≤ -4.2
C51A G74U C85U U135A	≤ -4.2
G50U A64C C93U A97U G136C	≤ -4.2
G50C G68A C72G C76U C93U C131U G141C	≤ -4.2
G50A U61A G81U G83C A91U U104G G143A	≤ -4.2
C51A G136A	-0.23

Variant	polymerase ribozyme fitness (log ratio)
G50A G71U A98U G152C	≤ -4.2
G50A C76A C96U	-3.13
G50C C99G U148A	≤ -4.2
G50C U90C U104G	≤ -4.2
G50A U53A C85A U109G A115G C116G G126C	≤ -4.2
G50C A91C C131A	≤ -4.2
G50A U78C C87A C105A A121U U134G G141C A142U	≤ -4.2
G50C G59A U90A A150G	≤ -4.2
G50C C125U	-3.89
G50C G71C	≤ -4.2
G50U C87U G92A	0.244
G50U C51A C93A	≤ -4.2
G50U U56G G68U	≤ -4.2
G50A C95U C116U	-1.99
G50C A91U A97U C132U	≤ -4.2
G50C G68A A121G	≤ -4.2
C51A G83U C103A	≤ -4.2
G50C G86C C103A G143C	≤ -4.2
G50U U55G C75A A97G A137U U151A	≤ -4.2
G50C A73U G80A G81U C95A G100U U151C	≤ -4.2
C51A C85A A98C A119U A120C A150G	≤ -4.2
G50C G59C G62A G68C C95U U148C	≤ -4.2
G50U U144G U145A	0.245
G50U U102A A142U	-2.57

Variant	polymerase ribozyme fitness (log ratio)
G50C G80A C96U C116A U127C U135G	≤ -4.2
G50C C51U C85A C118G C129U	≤ -4.2
G50C A120U A121C	-2.61
G50C C96U U134A	≤ -4.2
G50U C87U	-1.51
G50A C129G G136A	≤ -4.2
G50A G86U G140U	≤ -4.2
G50A U53A U56A C75U C116A U134G	≤ -4.2
C51A U56A C95A A98U	-1.46
G50C A120U U151A	≤ -4.2
G50U G58C G83U G94C U127A G128C U146C	≤ -4.2
G50C G58U C63U C76A G92A C149G	≤ -4.2
G50C C87U A107U A113G A119C	≤ -4.2
C51A A60G A89U	-1.65
G50U C95A C125G	-0.894
G50A G58C C99A	≤ -4.2
G50C G81C C96G C99G	≤ -4.2
G50A U82C G86U G112C	≤ -4.2
G50A C54U C76A G83C A113C	≤ -4.2
G50A C76A U82A G128A U139C	≤ -4.2
G50A C96U G141U	-0.125
C51A C57A C95A C114G A150G	≤ -4.2
C51A G65A G94C C114U C132U	≤ -4.2
G50A C79A	≤ -4.2

Variant	polymerase ribozyme fitness (log ratio)
G50U C57U G74A G92C G140A	≤ -4.2
G50A C87G	≤ -4.2
G50A G74U G83A C85G G152C	≤ -4.2
C51A A64C C93G G112C A147U	≤ -4.2
G50A C79G C85U A107G	≤ -4.2
C51G A52G C76U U109G G143U U146G	≤ -4.2
C51A G140C	-4.19
G50C A52C A73G A91C C118G U135G	≤ -4.2
G50C G58C G70A C85G C87U G140U	≤ -4.2
C51A U56A G59A C69A C105G U135G A142U	≤ -4.2
C51A U55A U56G G71U A89G A122U	≤ -4.2
C51A G80C C96G A106G A110U	≤ -4.2
G50A G70A C75A	≤ -4.2
G50A C75U C96A A97U	≤ -4.2
G50U G83A C95G A107G	≤ -4.2
G50A C57G A60C A91U C93G C114A	≤ -4.2
G50A C54U C85U G92U U148A	≤ -4.2
C51A C118U G152A	-3.06
G50U A122G U148A	-3.37
G50U A107C C132A	≤ -4.2
G50A C95A U111A U135A	≤ -4.2
G50U C95U C118A G140A	≤ -4.2
G50A C79U G94U C108U C132U	≤ -4.2
G50C A52C C105A C125A A142C U146A	≤ -4.2

Variant	polymerase ribozyme fitness (log ratio)
G50A C149A	≤ -4.2
G50U U53A A60G U61G A137C A150U	≤ -4.2
G50A C87G G128U C129A G140U U151G	≤ -4.2
G50C C76G C79A G100U G124C	≤ -4.2
G50C C54U	-2.6
G50C C54G	≤ -4.2
C51A C57A C87U A98G U146G	-3.12
G50C C85U U127A	≤ -4.2
G50C U82G G92C U102G U139G	≤ -4.2
G50U G74A C93A	≤ -4.2
G50C U56A A73G C125A	-4.1
G50A C96G U135G	≤ -4.2
G50U C72U A97C	-0.611
G50U U145C	-0.536
G50C C76A G83U C103A C132G U145G	≤ -4.2
G50C C76U	-1.88
C51A G117U	-1.02
G50C C131G	≤ -4.2
G50A C69U G84U A98U A122G	≤ -4.2
G50A C76A G92A U101G G128U U130G	≤ -4.2
C51A C75U C95U A106C G128U	≤ -4.2
G50A G65A A89U U101A A106C	-4.2
G50A C95A C108U G143A	≤ -4.2
G50C U56A G62C C72U C95U A142C	≤ -4.2

Variant	polymerase ribozyme fitness (log ratio)
G50C C75G C79U U90G C93A	≤ -4.2
G50A C54U C93U C105G	≤ -4.2
G50C A64C U82G C87G A106U A122C	≤ -4.2
G50C G65C G67U C85A G86A A91C U134G G143U	≤ -4.2
G50U U77C A115C C118U	≤ -4.2
G50U C96A C116G U144G	-1.25
G50C C103G U104A C105G A107U	≤ -4.2
G50C C85A	≤ -4.2
G50U G84A G92A A113U A137G U146A	≤ -4.2
G50C G81C C93G C95U A110C	≤ -4.2
G50C G58A	-1.56
G50C A137C G141U	≤ -4.2
G50C C76U G83U C93G G94U C95A A97U U135C	≤ -4.2
G50A G84U A147U	-1.53
G50U C93G C108G	≤ -4.2
G50C U82G G88C	≤ -4.2
G50C U102G U127C U135C	≤ -4.2
C51A C85A G92U C95G U145A	≤ -4.2
C51G A52G U102A	-3.01
G50A U56A U101A U111C	≤ -4.2
G50U A60G C79G U139G U144C	≤ -4.2
G50A C125A	-1.79
G50A C87A A106U C108G A150C	≤ -4.2
